# Measured values reported in PubChem BioAssay (NCATS).
# Where “and” joins values, the source holds several entries; their conditions need not be identical. Equal entries are not always repeated. The list shows a part of the results. Shown are side measurements of this screen, not its main read-out; they come without a call. For part of these data: Compounds called inactive in the main read-out are mostly missing here. For part of these data: The note in brackets gives the kind of curve behind each potency; many fits are weak.
# Experiments:
# [1] = qHTS Assay for Lipid Storage Modulators (AID 1519); details: Drosophila S3 cells, BODIPY lipid droplet/cell ratio, laser cytometry, cells loaded with oleic acid
# Outline: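 Cells seeded at 5,000 per well were treated with compounds over a concentration series and loaded with oleic acid (400 uM, as added). Lipid droplet fluorescence (488 nm excitation, 500-530 nm channel) was read by laser-scanning cytometry and normalized to 20 uM Triacsin C.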
# [2] = qHTS for identification of novel therapeutic agents for treatment of microphthalmiaassociated transcription factor (MiT) renal cell carcinoma (RCC) (AID 1963991); details: CellTiter-Glo, 48 h; for z-score: stronger effect = lower value
# Outline: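 Three TFE3-fusion RCC cell lines (UOK109, UOK124, UOK145), 500 cells/well, were exposed to the 1912-compound MIPE 4.0 library for 48 hours at 37 C. Viability was read by CellTiter-Glo luminescence, normalised to DMSO (100%) and empty wells (0%), with 11-concentration curve fits.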
# [3] = qHTS Assay for Inhibitors of PDE-IV (AID 607); details: HEK293 ACTOne CNG channel cells, membrane potential fluorescence; measured here: parental cell counter-screen;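 further: parental cells stimulated with forskolin 10 µM plus RO 20-1724 100 µM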
# Outline: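 ACTOne HEK293 cells carry a modified cAMP-gated CNG channel and express endogenous PDE4; plated 1000 cells/well, compounds up to 22.9 uM final. Membrane-potential dye fluorescence (ex 535/em 590) was read; parental cells received 10 uM forskolin + 100 uM RO 20-1724.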
# [4] = qHTS Assay for Modulators of Human Peripheral Myelin Protein 22 (PMP22) Expression/Activity (AID 1967); details: Cell-based PMP22 reporter, dual-color luciferase ratio
# Outline: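 Readout is the corrected green/red luminescence ratio after 24 h compound exposure, normalised to untreated cells (0%). Engineered MSC80 mouse Schwann cells express green luciferase from the mouse Pmp22 promoter and red luciferase from EF-alpha as internal control.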
# [5] = qHTS drug screen for cell cycle checkpoint inhibitors in PARPi-resistant BRCA-mutant ovarian cancer cell lines. (AID 1963452); details: PEO1/OlaR viability, CellTiter-Glo luminescence, 96 h
# Outline: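 PEO1, PEO4 and PEO1/OlaR ovarian cancer cells, 600 per well, exposed 96 h at 37C to a dilution series. Viability read by CellTiter-Glo luminescence, normalized to DMSO and empty wells; activity summarized as Z-AUC.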
# [6] = qHTS Validation Assay to Find Inhibitors of Chronic Active B-Cell Receptor Signaling (AID 485345); details: ABC-DLBCL cells, chronic BCR signaling reporter; measured here: CBR control luciferase (viability counter)
# Outline: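 Read-out: ratio of filter-corrected green (IkappaBalpha fusion) to red (native) luciferase signal in doxycycline-induced TMD8 cells after 4 h at 37C. Titration spanned 46 uM–3 nM; Data were normalised to basal cells and 10 uM MG-132 wells.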
# [7] = qHTS assay for small molecule antagonists of androgen receptor signaling (AID 588516); details: AR-UAS-bla HEK293, beta-lactamase ratio, antagonist mode, 16 h; measured here: W530 green channel, cytotoxicity/artifact
# Outline: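 Cells were plated and incubated 5 h, compounds added in titration, then R1881 (10 nM final) as agonist. After 16 h at 37 C, CCF4 substrate was loaded for 2 h at room temperature and fluorescence measured.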
# [8] = qHTS assay for small molecule agonists of retinoid X receptor alpha signaling (AID 588544); details: HEK293T RXRa-UAS-bla, beta-lactamase reporter, 18 h; 530 nm emission
# [9] = measured here: cell count channel max response
# [10] = measured here: cell number channel AC50
# [11] = measured here: lipid (BODIPY) channel AC50
# [12] = measured here: lipid channel max response
# [13] = TFE3-RCC UOK109 viability, measured here: UOK109 Z-AUC
# [14] = TFE3-RCC viability, measured here: UOK124 Z-AUC
# [15] = TFE3-RCC viability, measured here: UOK145 Z-AUC
# [16] = measured here: green reporter channel AC50, mouse Pmp22 promoter in mouse Schwann cells
# [17] = measured here: red reporter channel AC50, EF-alpha promoter control reporter in MSC80 mouse Schwann cells
# [18] = TFE3-RCC viability, measured here: UOK124 cell viability
# [19] = TFE3-RCC viability, measured here: UOK145 cell viability
# Tags describe the fitted curve by direction and shape.
structure (smiles),measurement,setting,value
CNC[C@H](O)c1ccc(O)c(O)c1,max response,[1]; [9],36% and 55.6%
same,AC50,[1]; [10],"14.1 µM [rising, partial curve] and 39.8 µM [rising, single point]"
same,AC50,[1]; [11],"15.8 µM [rising, partial curve] and 39.8 µM [rising, single point]"
same,max response,[1]; [12],43.5% and 55.9%
same,z-score,[2]; [13],0.388
same,z-score,[2]; [14],0.316
same,z-score,[2]; [15],1.38
Cc1cccc(C#Cc2ccccc2)n1,AC50,[3],"0.0251 µM [rising, full curve, poor fit]"
same,max response,[1]; [9],126%
same,AC50,[1]; [10],"6.31 µM [rising, partial curve]"
same,AC50,[1]; [11],"6.31 µM [rising, partial curve]"
same,max response,[1]; [12],168%
same,AC50,[4]; [16],"2.13 µM [rising, full curve]"
same,AC50,[4]; [17],"0.478 µM [rising, full curve, poor fit]"
same,z-score,[2]; [13],0.894
same,z-score,[2]; [14],0.629
same,AC50,[2]; [18],"18.7 µM [falling, partial curve, poor fit]"
same,z-score,[2]; [15],0.607
CC(C)(C)NCC(O)c1ccc(O)c(CO)c1 (stereo not drawn),max response,[1]; [9],30.1% and 36%
same,AC50,[1]; [10],"25.1 µM [falling, single point]"
same,AC50,[1]; [11],"25.1 µM [falling, single point]"
same,max response,[1]; [12],30.5% and 36%
same,AC50,[4]; [17],"84.9 µM [falling, single point]"
same,AC50,[5]; measured here: PEO1 parental viability,"24.5 µM [rising, single point]"
CC1C(=O)OC2C(O)C34C5CC(C(C)(C)C)C36C(OC(=O)C6O)OC4(C(=O)O5)C12O (stereo not drawn),max response,[1]; [9],-9.92%
same,AC50,[1]; [10],"0.0708 µM [falling, full curve, poor fit]"
same,AC50,[1]; [11],"0.0794 µM [falling, full curve, poor fit]"
same,max response,[1]; [12],-7.3%
same,z-score,[2]; [13],-0.738
same,z-score,[2]; [14],0.628
same,z-score,[2]; [15],-1.46
same,AC50,[2]; [19],"2.64 µM [falling, partial curve, poor fit]"
O=c1c(-c2ccc(O)cc2)coc2cc(O)ccc12,max response,[1]; [9],42.5%
same,AC50,[1]; [10],"6.31 µM [rising, full curve, poor fit]"
same,AC50,[1]; [11],"7.08 µM [rising, full curve, poor fit]"
same,max response,[1]; [12],49.4%
same,AC50,[4]; [16],"0.239 µM [falling, partial curve, poor fit]"
same,AC50,[4]; [17],"47.8 µM [falling, partial curve, poor fit]"
same,AC50,[6],"0.0651 µM [rising, full curve, poor fit]"
same,AC50,[7],"44.7 µM [rising, single point]"
same,max response,[8],16.3% and 14.5%
same,AC50,[5]; measured here: PEO4 viability,"0.0616 µM [rising, partial curve, poor fit]"
Nc1nnc(-c2cccc(Cl)c2Cl)c(N)n1,max response,[1]; [9],6.69%
same,AC50,[1]; [10],"0.316 µM [falling, full curve, poor fit]"
same,AC50,[1]; [11],"0.355 µM [falling, full curve, poor fit]"
same,max response,[1]; [12],6.52%
same,AC50,[4]; [17],"84.9 µM [falling, single point]"
same,z-score,[2]; [13],0.372
same,z-score,[2]; [14],0.77
same,z-score,[2]; [15],0.29
same,AC50,[2]; [19],"33.2 µM [falling, single point]"
COC(=O)C1=C(C)NC(C)=C(C(=O)OC(C)C)C1c1cccc2nonc12 (stereo not drawn),max response,[1]; [9],79.9%
same,AC50,[1]; [10],"28.2 µM [rising, partial curve, poor fit]"
same,AC50,[1]; [11],"31.6 µM [rising, partial curve]"
same,max response,[1]; [12],105%
same,z-score,[2]; [13],0.485
same,z-score,[2]; [14],0.139
same,z-score,[2]; [15],-0.215
same,AC50,[2]; [19],"13.2 µM [falling, partial curve]"
O=C(CCc1ccc(O)cc1)c1c(O)cc(O)cc1O,max response,[1]; [9],90.9% and 74.4%
same,AC50,[1]; [10],"39.8 µM [rising, partial curve, poor fit]"
same,AC50,[1]; [11],"35.5 µM [rising, partial curve, poor fit] and 39.8 µM [rising, single point]"
same,max response,[1]; [12],106% and 66.7%
same,AC50,[4]; [17],"84.9 µM [falling, single point]"
same,z-score,[2]; [13],-0.655
same,z-score,[2]; [14],0.403
same,z-score,[2]; [15],1.1
Cc1cc2cc3c(C)cc(=O)oc3c(C)c2o1,max response,[1]; [9],36.1%
same,AC50,[1]; [10],"1.41 µM [rising, full curve]"
same,AC50,[1]; [11],"7.08 µM [rising, partial curve]"
same,max response,[1]; [12],69.6%
same,z-score,[2]; [13],-0.0339
same,z-score,[2]; [14],0.447
same,z-score,[2]; [15],-1.54
same,AC50,[2]; [19],"0.0148 µM [rising, full curve]"
CCN(c1ccccc1)c1cc(NC)[n+](C)c(C)n1,max response,[1]; [9],55.4%
same,AC50,[1]; [10],"12.6 µM [rising, partial curve, poor fit]"
same,AC50,[1]; [11],"14.1 µM [rising, partial curve, poor fit]"
same,max response,[1]; [12],65.4%
same,z-score,[2]; [13],-0.999
same,z-score,[2]; [14],0.254
same,z-score,[2]; [15],0.533
OC(CN1CCN(c2cccc(Cl)c2)CC1)C(c1ccccc1)c1ccccc1 (stereo not drawn),max response,[1]; [9],-11.6%
same,AC50,[1]; [10],"6.31 µM [falling, single point]"
same,AC50,[1]; [11],"6.31 µM [falling, single point]"
same,max response,[1]; [12],-7.86%
same,AC50,[4]; [16],"67.5 µM [falling, partial curve]"
same,AC50,[4]; [17],"67.5 µM [falling, partial curve]"
same,z-score,[2]; [13],1.06
same,z-score,[2]; [14],-0.21
same,AC50,[2]; [18],"33.2 µM [falling, single point]"
same,z-score,[2]; [15],0.474
same,AC50,[2]; [19],"33.2 µM [falling, partial curve, poor fit]"
